Our source for the activation values is PubChem BioAssay AID1346428 (National Center for Advancing Translational Sciences (NCATS), 2018).

Molecules are shown by their SMILES. Values joined by “and” are separate entries in the source; they are usually repeats but may differ in a detail not shown here. Identical values can stand only once. The campaign covered roughly 48,000 compounds. About 1,200 (2.5%) were called active. Inconclusive results (about 2%) are left out.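 How the source made its calls: active means activation of at least 60% and not above a set upper limit (about 1 call in 100 departs from these limits); inconclusive means activation of 40% to 60%, or above that upper limit; inactive means activation under 40%.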 The list shows a part of the results.

Sequence of UniProt O75388 (O75388 whole entry, looked up, the tested form may be a part): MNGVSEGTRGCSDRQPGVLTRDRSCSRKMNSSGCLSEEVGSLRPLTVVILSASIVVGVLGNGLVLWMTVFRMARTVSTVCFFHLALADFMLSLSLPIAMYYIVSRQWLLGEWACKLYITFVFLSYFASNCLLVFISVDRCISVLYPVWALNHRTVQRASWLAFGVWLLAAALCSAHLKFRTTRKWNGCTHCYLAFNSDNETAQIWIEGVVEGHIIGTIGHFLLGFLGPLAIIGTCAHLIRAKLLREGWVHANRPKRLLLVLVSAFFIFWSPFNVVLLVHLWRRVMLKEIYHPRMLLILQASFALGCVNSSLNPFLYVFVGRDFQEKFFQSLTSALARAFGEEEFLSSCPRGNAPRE

This test concerns the target Probable G-protein coupled receptor 32 (Homo sapiens) (UniProt O75388). The test is described as follows: qHTS for Agonists of Human Resolvin D1 Receptor DRV1. Further: 0% is about no effect. The settings on record: CHO-K1 GPR32 beta-arrestin PathHunter luminescence, 90 min; at 76.9 µM; stronger effect = higher value; zero percent set by DMSO-only wells. The gist of the method:
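Agonism was scored by beta-Gal fragment complementation (chemiluminescent read, 1 h detection at ambient temperature) reporting beta-arrestin binding to GPR32 in engineered CHO-K1 cells. Compound treatment lasted 90 min at 37 C, normalized to a DMSO basal control.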
(In general: Quantitative high-throughput screening tests each substance at several concentrations.)
In the case of `CCCCC12CN3CC(C)(CN(C1)C3c1cc(Br)ccc1O)C2=O` (stereo not given), the activation is inactive: -27.8%.
To `COc1ccc(NC(=O)c2ccc3nc(CCc4ccccc4)oc3c2)cc1` belongs inactive: -18.2%; to `Cc1ccc(-c2nc3scc(CCNC(=O)c4cccc(Br)c4)n3n2)cc1`, inactive: -9.58%.
`CCOC(=O)CNC(=O)Nc1cc(C(=O)NCc2cccc(F)c2)ccc1N1CCCC1`: the activation was inactive: -15.3%.
The figure for `CS(=O)(=O)c1ccc2nc(NC(=O)CS(=O)(=O)c3ccc(Cl)cc3)sc2c1` is inactive: -4.08%; for `CCCCCC(C)N` (stereo not given) it is inactive: -23.5%; for `O=C(NCC(c1cccnc1)N1CCc2ccccc21)c1ccccc1Br` (stereo not given) it is inactive: -25.5%.
Consider `Cc1ccc(N2CCN(c3nc4ccc(C)cc4n4nnnc34)CC2)c(C)c1`, for which the activation was inactive: -10.1%.
On to `Cc1ccc(NC2=C(c3ccc(C(F)(F)F)cc3)C(=O)c3ccccc32)cc1F`, for which the activation was inactive: -12.3%.
With `CCOc1ccccc1NC(=O)CSc1nc2ccccc2c2nc(CCn3cncc3C)nn12`, the activation was active: 97.2%.
Regarding `O=C(Nc1ccc2nc(SCC(=O)N3CCCC3)sc2c1)c1ccccc1`, the activation was inactive: -6.02%.
As for `CCOc1cc(C(=O)Nc2ccc(-c3nc4cc(C)ccc4o3)cc2)cc(OCC)c1OCC`, the activation is inactive: 20.7%.
Take `COc1cc2c(-c3ccccc3C)nc3c(c(C)nn3-c3ccccc3)c2cc1OC`: the activation was inactive: -3.41%.
As for `CCCN(CCC)C(=O)Cn1c(=O)n(-c2cccc(C(F)(F)F)c2)c(=O)c2c(C)c(C)sc21`, the activation was inactive: 19.9%.
With `O=C(Cn1c(=O)n(Cc2ccco2)c(=O)c2cccnc21)Nc1ccccc1F`, the activation is inactive: -0.298%.
To `Cc1ccc(S(=O)(=O)N2CCC(Oc3ccc(-n4cnnn4)cc3)CC2)cc1` belongs inactive: -9.02%; to `COc1ccc(CC(=O)Nc2ccc3nc(Nc4cccc(Cl)c4)cc(C)c3c2)cc1OC`, inactive: -2.46%; to `COc1ccc(CNCCSc2nnnn2-c2ccccc2)cc1`, inactive: -9.57%.
Take `COc1ccccc1-n1cc(-c2ccc(C)cc2)nc1S(=O)(=O)CC(=O)Nc1ccccc1C(F)(F)F`: the activation was inactive: -14%.
In the case of `COc1ccc(CCNC(=O)c2ccc3c(c2)N(Cc2cccc(C)c2)C(=O)c2ccccc2S3(=O)=O)cc1OC`, the activation was inactive: -11.8%.
Turning to `CCc1ccc(-n2nnc(-c3nc(-c4ccccc4)no3)c2C)cc1`, the activation was inactive: -7.87%.
Turning to `COc1cc(OC)c(NC(c2nnc(-c3ccccc3)o2)c2ccc(F)cc2Cl)cc1Cl` (stereo not given), the activation is inactive: -26.6%.
As to `COc1ccc2nc(N(Cc3cccnc3)C(=O)CCc3ccccc3)sc2c1`, the activation is inactive: -25.1%.
On to `Cc1ccc(Nc2c3c(nc4nncn24)CCC3)cc1`, for which the activation was inactive: -24.5%.
Turning to `COc1ccccc1Nc1c2c(nc3ccc(NC(=O)/C=C/c4cccc(OC)c4OC)cc13)CCCC2`, the activation is inactive: -37.4%.
For `O=C(CCCN1CC=C(n2c(=O)[nH]c3ccccc32)CC1)c1ccc(F)cc1`, the activation is inactive: 47.7%.
The figure for `CCn1cc(S(=O)(=O)c2cc(C)cc(C)c2)c(=O)c2cc(F)c(N3CCOCC3)cc21` is inactive: -9.98%.
To `COc1ccccc1NC(=O)CSc1nnc(-c2cccc(Cl)c2)o1` belongs inactive: 43.4%; to `CCOc1ccccc1-c1nc(-c2ccc(-c3ccccc3)nc2OCC)no1`, inactive: -6.93%.
For the molecule `Cc1cc(C)cc(-n2cnc3cc(C(=O)NCCc4ccccc4)ccc32)c1`, the activation was inactive: -29%.
To `Cc1ccc(CCNC(=O)CCc2cn(Cc3ccccc3C)c3ccccc23)cc1` belongs inactive: -23.7%; to `COc1cc(NC(=O)Cn2c(SCc3ccc(F)cc3)nc3cccnc32)cc(OC)c1`, inactive: -1.22%; to `CCN(C(=O)Cn1c(C(=O)OC)cc2oc3ccccc3c21)c1cccc(C)c1`, inactive: -10.9%.
In the case of `Cc1ccc(C)c(N(C)C(=O)c2cn(C)c(=O)c3ccccc23)c1`, the activation was inactive: -23.6%.
For `CCOC(=O)c1c(Oc2ccc(C(=O)OC)cc2)nnc(-c2ccccc2)c1-c1ccccc1`, the activation was inactive: -17%.
The figure for `O=C(CNC(=O)c1ccccc1Cl)OCc1cc(=O)n2ccsc2n1` is inactive: -10.7%; for `O=C(c1cccc(Cl)c1)n1nc(-c2ccco2)nc1NCc1cccs1` it is inactive: 7.74%.
With `COc1cc(CN(C(=O)c2cc3ccccc3oc2=O)C2CCS(=O)(=O)C2)cc(OC)c1OC` (stereo not given), the activation was inactive: -4.6%.
Take `Cc1cccc(Cn2c(SCc3ccc(C(=O)N4CCCCCC4)cc3)nc3ccncc32)c1`: the activation was inactive: -4.38%.
For the molecule `Brc1csc(CN2CCc3nc(Nc4ccccc4)ncc3C2)c1`, the activation is inactive: -10.7%.
For the molecule `Cc1cccc(NC(=O)c2cc(S(=O)(=O)N3CCCCC3)c[nH]2)c1C`, the activation was inactive: 3.1%.
As to `CCN(CC)CCNC(=O)c1cc(S(C)(=O)=O)ccc1OC`, the activation was inactive: -17.9% and inactive: -6.66%.
Turning to `O=C(NCCCc1ccccc1)c1nn(-c2ccccc2F)nc1CO`, the activation is inactive: -24.6%.
`COc1cccc(CNC(=O)c2c(C)nn(-c3cccc(C)c3)c2-n2cccc2)c1`: the activation is inactive: -9.48%.
With `O=C(NCCc1ccccc1)c1ccc(CSc2nc3cccnc3n2Cc2ccc(F)cc2)cc1`, the activation was inactive: 0.451%.
The figure for `Cc1nc(-c2ccc(C)c(N3CCN(C(=O)Nc4ccccc4C(F)(F)F)CC3)c2)no1` is inactive: -6%; for `CC(=O)c1ccc(NC(=O)C2CCC(CNS(=O)(=O)c3ccc(Br)s3)CC2)cc1` (stereo not given) it is inactive: -1.33%; for `O=C(NC(=O)c1cccc(F)c1)Nc1ccc(-c2cc(C(F)(F)F)nn2-c2ccccc2)cc1` it is inactive: 8.25%.
Take `Cc1ccc(C(=O)Nc2nnc(S(=O)(=O)N3CCOCC3)s2)cc1`: the activation was inactive: 38.6%.
The figure for `COC(=O)c1ccc(NC(=O)C2(S(=O)(=O)c3ccc(C)cc3)CC2)cc1` is inactive: -12.3%.
The figure for `COC(=O)c1sc(-c2ccccc2)cc1NC(=O)c1cccc(F)c1` is inactive: 3.18%.
For the molecule `Cc1ccc(CN2CCCn3nc(C(=O)NCCC(C)C)cc3C2=O)cc1`, the activation is inactive: 0.143%.
For the molecule `O=C(NCc1ccc(F)cc1)C1CCN(C(=O)c2ccc(-n3ccc4ccccc43)s2)CC1`, the activation was inactive: -10.3%.
As to `Oc1c(I)cc(I)c2cccnc12`, the activation is inactive: -44.8%.
On to `CC1CCN(c2nc3c(S(=O)(=O)c4ccccc4)nnn3c3ccsc23)CC1`, for which the activation was inactive: -2.62%.
